Data on four compounds can be found in PubChem BioAssay (NCI).

Common to all, as to assay: growth of human tumour cells (NCI), 48 h
In assay [1] the test system is HL-60(TB) leukemia.
The test system of assay [2] is DU-145 prostate.
For assay [3], the system named is ACHN renal.
In assay [4] the test system is K-562 leukemia.
Assay [5] deals with OVCAR-4 ovarian.
Assay [6] has as its system RPMI-8226 leukemia.
In assay [7] the test system is SR leukemia.
For assay [8], the system named is MOLT-4 leukemia.
Assay [9] deals with SF-268 CNS.
Assay [10] relates to HS 578T breast.
Assay [11] has as its system CCRF-CEM leukemia.
In assay [12] the test system is SNB-19 CNS.
The test system of assay [13] is T-47D breast.
Assay [14] deals with CAKI-1 renal.
For assay [15], the system named is HCT-15 colon.
The test system of assay [16] is HCT-116 colon.
Assay [17] has as its system SK-MEL-2 melanoma.
The test system of assay [18] is SNB-75 CNS.
For assay [19], the system named is IGROV1 ovarian.
For assay [20], the system named is SF-295 CNS.
Assay [21] concerns SK-MEL-5 melanoma.
Assay [22] relates to UO-31 renal.
For assay [23], the system named is UACC-62 melanoma.
For assay [24], the system named is U251 CNS.
Assay [25] deals with COLO 205 colon.
In assay [26] the test system is SN12C renal.
The subject of assay [27] is NCI-H23 lung.
Assay [28] has as its system SK-MEL-28 melanoma.
Assay [29] has as its system RXF 393 renal.
Assay [30] relates to OVCAR-5 ovarian.
Assay [31] has as its system PC-3 prostate.
Assay [32] has as its system M14 melanoma.
The subject of assay [33] is MALME-3M melanoma.
Assay [34] relates to EKVX NSCLC.
In assay [35] the test system is SW-620 colon.
Assay [36] relates to HOP-62 NSCLC.
Assay [37] concerns SK-OV-3 ovarian.
For assay [38], the system named is NCI-H226 lung.
Assay [39] deals with NCI-H522 lung.
Assay [40] deals with HCC-2998 colon.
The subject of assay [41] is A549 NSCLC.
Assay [42] has as its system A498 renal.
Assay [43] deals with NCI-H460 lung.
For assay [44], the system named is OVCAR-3 ovarian.
Assay [45] has as its system NCI/ADR-RES ovarian.
For assay [46], the system named is SF-539 CNS.
Assay [47] deals with OVCAR-8 ovarian.
For assay [48], the system named is MDA-MB-435.
For assay [49], the system named is TK-10 renal.

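These data come from cells grown in 96-well plates and exposed to compound for 48 hours at five concentrations. GI50 is the concentration that inhibits growth by half.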 The source holds more than one record for some entries. This is not the full list of results. An entry can have further records. For some assays here: A record mostly stands for its own series of concentrations, not given here; a value can be the end of its range.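 TGI is the concentration that stops growth completely.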 For some assays here: Values that stand side by side are repeated measurements in other runs, samples, wells, individuals or studies. A tag in brackets gives the origin of a value. A, B and so on number the origins entry by entry.

For `Cc1cc2nc3ccc(=[N+](C)C)cc-3sc2cc1N`, the TGI in assay [1] is 1.17 µM [sample A] and > 30.9 µM [sample B] and 1.05 µM [sample C]; in [2], 3.35 µM [sample A] and 29.5 µM [sample B] and 2.48 µM [sample C]; in assay [3], 2.58 µM [sample A] and 31.7 µM [sample B] and 2.86 µM [sample C]; in assay [4] it was 3.3 µM [sample A] and > 45.2 µM [sample B] and 4.2 µM [sample C]; in assay [5], 793 nM [sample A] and 13.7 µM [sample B] and 658 nM [sample C]; in assay [6], 865 nM [sample A] and 31 µM [sample B]. The TGI in assay [7] is 2.87 µM [sample A] and 90.8 µM [sample B]; in [8] it was 1.91 µM [sample A] and > 37.7 µM [sample B] and 1.45 µM [sample C]; in assay [9], 4.14 µM [sample A] and > 46.8 µM [sample B] and 3.3 µM [sample C]; in assay [10], 1.72 µM [sample A] and 26.4 µM [sample B] and 6.78 µM [sample C]; in assay [11] it was 1.8 µM [sample A] and > 56.4 µM [sample B] and 6.41 µM [sample C].

With `C=C1COC(O)(C2OCOC(C3CC(=O)NC(=O)C3)C2O)C1C` (stereo unspecified), the TGI in assay [12] is 39.1 nM and > 100 µM; in assay [13] it was 3.43 nM and 34.7 nM; in [14], 37.4 nM and 521 nM; in [15], 49.2 nM and > 100 µM.

Consider `COC(C(=O)C(O)C(C)O)C1Cc2cc3cc(OC4CC(OC5CC(O)C(O)C(C)O5)C(O)C(C)O4)c(C)c(O)c3c(O)c2C(=O)C1OC1CC(OC2CC(O)C(OC3CC(C)(O)C(O)C(C)O3)C(C)O2)C(O)C(C)O1` (stereo unspecified), for which the TGI is 112 µg/mL [1 test] and 12.2 µg/mL [mean of 2 tests] in assay [16]; 0.0112 µg/mL [1 test] and 0.00228 µg/mL [mean of 3 tests] in assay [17]; 0.0752 µg/mL [1 test] and 0.0127 µg/mL [mean of 4 tests] in assay [18]; 112 µg/mL [1 test] and 4.74 µg/mL [mean of 4 tests] in assay [19]; 26 µg/mL [1 test] and 0.0612 µg/mL [mean of 3 tests] in assay [20]; 0.0188 µg/mL [1 test] and 0.00511 µg/mL [mean of 3 tests] in [21]. The TGI is 17.8 µg/mL [1 test] and 0.478 µg/mL [mean of 4 tests] in [22]; 0.0112 µg/mL [1 test] and 0.000821 µg/mL [mean of 4 tests] in [23]; 112 µg/mL [1 test] and 2.82 µg/mL [mean of 4 tests] in assay [24]; 0.0208 µg/mL [1 test] and 0.00176 µg/mL [mean of 4 tests] in [25]; 112 µg/mL [1 test] and 4.74 µg/mL [mean of 4 tests] in assay [26]; 0.0437 µg/mL [1 test] and 0.00342 µg/mL [mean of 4 tests] in assay [27]. For the same compound, the TGI was 0.0804 µg/mL [1 test] and 0.00188 µg/mL [mean of 4 tests] in assay [28]; 0.0112 µg/mL [1 test] and 0.000805 µg/mL [mean of 3 tests] in assay [29]; 112 µg/mL [1 test] and 0.333 µg/mL [mean of 3 tests] in assay [30]; 48.2 µg/mL [1 test] and > 150 µg/mL [mean of 2 tests] in assay [31]; 41.8 µg/mL [1 test] and 0.999 µg/mL [mean of 4 tests] in assay [4]; 0.222 µg/mL [1 test] and 2.29 µg/mL [mean of 2 tests] in [32]. In addition, the TGI was 0.0691 µg/mL [1 test] and 0.00385 µg/mL [mean of 4 tests] in [33]; 6.49 µg/mL and 0.0557 µg/mL in assay [34]; 112 µg/mL [1 test] and 15 µg/mL [mean of 3 tests] in [35]; 3.15 µg/mL [1 test] and 0.000461 µg/mL [mean of 2 tests] in [36]; 112 µg/mL [1 test] and 0.963 µg/mL [mean of 4 tests] in [37]; 0.0197 µg/mL [1 test] and 0.0011 µg/mL [mean of 3 tests] in [38]. Besides, the TGI is 0.0112 µg/mL [1 test] and 0.00126 µg/mL [mean of 4 tests] in assay [39]; 0.0368 µg/mL [1 test] and 0.000957 µg/mL [mean of 3 tests] in assay [40]; 112 µg/mL [1 test] and 4.74 µg/mL [mean of 4 tests] in [41]; 0.0112 µg/mL [1 test] and 9.7e-05 µg/mL [mean of 2 tests] in assay [42]; 112 µg/mL [1 test] and 4.19 µg/mL [mean of 4 tests] in assay [43]; 14.8 µg/mL [1 test] and 0.292 µg/mL [mean of 3 tests] in assay [44]. Moreover, the TGI in assay [45] is 112 µg/mL [1 test] and 0.746 µg/mL [mean of 4 tests]; in assay [8] it was 19.2 µg/mL [1 test] and 0.325 µg/mL [mean of 4 tests]; in assay [9] it was 35.3 µg/mL [1 test] and 0.862 µg/mL [mean of 4 tests]; in assay [46] it was 0.0358 µg/mL [1 test] and 0.00249 µg/mL [mean of 2 tests]; in assay [47] it was 13.6 µg/mL [1 test] and 2.49 µg/mL [mean of 4 tests]; in assay [48], 0.145 µg/mL [1 test] and 5.41 µg/mL [mean of 2 tests]. For the same compound, the TGI in assay [11] is 112 µg/mL [1 test] and 0.132 µg/mL [mean of 3 tests]; in assay [49] it was 0.335 µg/mL and > 150 µg/mL.

As for `C/C(=N\NC(=S)N1CCN(C2CCCCCC2)CC1)c1ccccn1`, the TGI in [1] is 4.09 nM and 103 nM; in assay [6], 17.6 nM and 545 nM. Moreover, the GI50 in [30] is < 1 nM [1 test] and 69.2 nM [mean of 3 tests].
